The term Kd denotes the concentration at which binding is half-saturated. As a reminder, the koff is the rate constant with which the complex falls apart. As a reminder, the kon is the second-order rate constant of association.

Kd, koff and kon data for 49 molecules are collected here from patent US20230340054A1 (published 2023).

T1: human IL-2Rα (CD25), recombinant, biotinylated (human, UniProt P01589 22-213, limits assumed, biotinylated (site not stated))
T1 construct: also called human CD25 (IL-2Rα) receptor
T1 sequence (looked up): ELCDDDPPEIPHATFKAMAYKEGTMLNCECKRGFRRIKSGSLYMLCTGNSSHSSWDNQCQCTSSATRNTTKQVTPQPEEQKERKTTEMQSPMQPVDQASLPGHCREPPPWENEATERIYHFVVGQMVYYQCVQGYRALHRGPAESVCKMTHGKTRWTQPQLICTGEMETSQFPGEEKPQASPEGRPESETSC

B1: IgG fusion IL-2 mutein T111W (other)
chain: not shown
B2: IgG fusion IL-2 mutein D20T (other)
chain: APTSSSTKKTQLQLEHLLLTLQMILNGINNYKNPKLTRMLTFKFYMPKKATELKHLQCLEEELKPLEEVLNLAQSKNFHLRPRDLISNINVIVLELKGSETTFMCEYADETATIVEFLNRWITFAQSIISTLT
B3: IgG fusion IL-2 mutein L19F (other)
chain: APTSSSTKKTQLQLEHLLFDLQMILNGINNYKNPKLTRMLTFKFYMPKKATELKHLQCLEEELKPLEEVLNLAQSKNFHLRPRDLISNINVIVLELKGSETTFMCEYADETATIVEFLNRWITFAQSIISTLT
B4: IgG fusion IL-2 mutein D109W (other)
chain: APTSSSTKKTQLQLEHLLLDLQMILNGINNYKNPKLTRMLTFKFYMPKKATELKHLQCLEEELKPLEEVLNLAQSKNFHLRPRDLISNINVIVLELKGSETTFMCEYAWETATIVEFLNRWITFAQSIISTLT
B5: IgG fusion IL-2 mutein T111H (other)
chain: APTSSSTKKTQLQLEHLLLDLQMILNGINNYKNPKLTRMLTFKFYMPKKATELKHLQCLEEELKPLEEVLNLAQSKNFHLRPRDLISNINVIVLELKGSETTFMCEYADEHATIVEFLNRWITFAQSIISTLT
B6: IgG fusion IL-2 mutein P65R (other)
chain: not shown
B7: IgG fusion IL-2 mutein L19V (other)
chain: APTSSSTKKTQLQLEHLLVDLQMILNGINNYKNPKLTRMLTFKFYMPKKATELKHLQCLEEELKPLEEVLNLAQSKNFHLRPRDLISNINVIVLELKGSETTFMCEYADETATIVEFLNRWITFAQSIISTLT
B8: IgG fusion IL-2 mutein D20N (other)
chain: not shown
B9: IgG fusion IL-2 mutein T111N (other)
chain: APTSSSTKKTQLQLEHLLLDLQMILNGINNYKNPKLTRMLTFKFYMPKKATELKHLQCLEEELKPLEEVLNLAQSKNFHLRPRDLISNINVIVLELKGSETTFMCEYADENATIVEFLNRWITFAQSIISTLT
B10: IgG fusion IL-2 mutein I92W (other)
chain: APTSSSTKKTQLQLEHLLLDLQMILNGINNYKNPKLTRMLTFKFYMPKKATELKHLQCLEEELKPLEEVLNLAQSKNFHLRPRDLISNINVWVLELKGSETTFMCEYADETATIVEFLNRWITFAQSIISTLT
B11: IgG fusion IL-2 mutein E68F (other)
chain: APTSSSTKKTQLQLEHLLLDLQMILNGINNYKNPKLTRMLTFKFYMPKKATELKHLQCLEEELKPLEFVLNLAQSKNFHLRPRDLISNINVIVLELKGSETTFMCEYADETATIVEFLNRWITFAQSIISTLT
B12: IgG fusion IL-2 mutein P34Y (other)
chain: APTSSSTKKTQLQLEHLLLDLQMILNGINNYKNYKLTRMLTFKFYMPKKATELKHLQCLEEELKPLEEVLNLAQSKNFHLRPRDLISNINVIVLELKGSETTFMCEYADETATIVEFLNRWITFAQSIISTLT
B13: IgG fusion IL-2 mutein I92F (other)
chain: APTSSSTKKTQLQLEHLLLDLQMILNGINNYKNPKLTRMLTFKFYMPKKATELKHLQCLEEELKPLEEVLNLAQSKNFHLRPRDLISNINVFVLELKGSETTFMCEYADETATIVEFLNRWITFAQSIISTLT
B14: IgG fusion IL-2 mutein M23I (other)
chain: not shown
B15: IgG fusion IL-2 mutein H16R (other)
chain: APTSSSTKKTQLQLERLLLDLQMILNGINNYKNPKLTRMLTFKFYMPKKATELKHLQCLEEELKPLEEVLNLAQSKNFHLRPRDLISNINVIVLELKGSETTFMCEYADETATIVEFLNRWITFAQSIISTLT
B16: IgG fusion IL-2 mutein P34F (other)
chain: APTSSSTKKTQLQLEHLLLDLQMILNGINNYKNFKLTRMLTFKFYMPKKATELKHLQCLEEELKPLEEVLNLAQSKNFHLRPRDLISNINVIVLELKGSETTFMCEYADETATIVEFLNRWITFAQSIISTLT
B17: IgG fusion IL-2 mutein E15S (other)
chain: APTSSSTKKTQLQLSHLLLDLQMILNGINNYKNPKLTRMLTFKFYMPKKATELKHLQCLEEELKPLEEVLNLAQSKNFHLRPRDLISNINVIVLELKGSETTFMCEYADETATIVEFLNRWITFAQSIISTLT
B18: IgG fusion IL-2 mutein L12V (other)
chain: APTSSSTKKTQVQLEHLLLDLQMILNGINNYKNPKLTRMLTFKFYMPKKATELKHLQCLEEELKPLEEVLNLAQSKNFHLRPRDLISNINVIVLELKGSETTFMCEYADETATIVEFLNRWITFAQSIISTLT
B19: IgG fusion IL-2 mutein E95T (other)
chain: not shown
B20: IgG fusion IL-2 mutein K48V (other)
chain: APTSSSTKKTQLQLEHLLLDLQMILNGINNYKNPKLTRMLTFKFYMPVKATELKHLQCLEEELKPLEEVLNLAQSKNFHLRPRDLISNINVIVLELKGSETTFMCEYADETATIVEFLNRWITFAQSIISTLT
B21: IgG fusion IL-2 mutein N88S (other)
chain: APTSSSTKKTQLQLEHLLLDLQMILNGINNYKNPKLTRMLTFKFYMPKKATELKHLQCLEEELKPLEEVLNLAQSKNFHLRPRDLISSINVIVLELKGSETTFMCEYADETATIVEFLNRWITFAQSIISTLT
B22: IgG fusion IL-2 mutein M104H (other)
chain: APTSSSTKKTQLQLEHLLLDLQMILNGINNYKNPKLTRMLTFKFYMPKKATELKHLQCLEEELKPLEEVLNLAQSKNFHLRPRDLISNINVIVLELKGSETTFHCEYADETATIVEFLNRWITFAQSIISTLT
B23: IgG fusion IL-2 mutein D84T (other)
chain: not shown
B24: IgG fusion IL-2 mutein P65Q (other)
chain: not shown
B25: IgG fusion IL-2 mutein L72R (other)
chain: not shown
B26: IgG fusion IL-2 mutein M104I (other)
chain: not shown
B27: IgG fusion IL-2 mutein S87T (other)
chain: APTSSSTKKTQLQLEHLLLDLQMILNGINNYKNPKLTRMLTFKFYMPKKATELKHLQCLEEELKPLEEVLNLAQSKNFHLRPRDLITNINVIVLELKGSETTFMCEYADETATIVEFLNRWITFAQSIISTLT
B28: IgG fusion IL-2 mutein E95N (other)
chain: not shown
B29: IgG fusion IL-2 mutein D109H (other)
chain: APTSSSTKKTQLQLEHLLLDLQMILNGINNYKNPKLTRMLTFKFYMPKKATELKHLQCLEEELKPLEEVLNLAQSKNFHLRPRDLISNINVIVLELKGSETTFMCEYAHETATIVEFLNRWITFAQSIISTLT
B30: IgG fusion IL-2 mutein E106W (other)
chain: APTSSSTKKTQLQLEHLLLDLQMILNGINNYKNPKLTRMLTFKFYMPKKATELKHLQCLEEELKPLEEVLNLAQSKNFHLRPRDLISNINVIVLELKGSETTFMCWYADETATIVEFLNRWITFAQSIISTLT
B31: IgG fusion IL-2 mutein P65E (other)
chain: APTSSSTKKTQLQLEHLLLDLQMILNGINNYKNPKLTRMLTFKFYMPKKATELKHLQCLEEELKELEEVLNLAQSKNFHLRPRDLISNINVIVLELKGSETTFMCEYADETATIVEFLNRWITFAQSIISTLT
B32: IgG fusion IL-2 mutein E95D (other)
chain: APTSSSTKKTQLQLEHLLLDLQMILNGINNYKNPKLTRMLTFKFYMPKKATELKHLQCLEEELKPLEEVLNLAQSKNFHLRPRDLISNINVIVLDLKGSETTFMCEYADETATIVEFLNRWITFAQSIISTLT
B33: IgG fusion IL-2 mutein D109M (other)
chain: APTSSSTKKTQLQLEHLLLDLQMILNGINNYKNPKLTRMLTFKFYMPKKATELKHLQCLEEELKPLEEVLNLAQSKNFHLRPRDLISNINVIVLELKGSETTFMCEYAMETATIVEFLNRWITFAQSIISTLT
B34: IgG fusion IL-2 mutein S87E (other)
chain: not shown
B35: IgG fusion IL-2 mutein D109R (other)
chain: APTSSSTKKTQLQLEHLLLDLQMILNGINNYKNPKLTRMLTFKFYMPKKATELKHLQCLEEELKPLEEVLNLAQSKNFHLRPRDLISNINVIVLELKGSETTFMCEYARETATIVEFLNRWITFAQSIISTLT
B36: IgG fusion IL-2 mutein E95Q (other)
chain: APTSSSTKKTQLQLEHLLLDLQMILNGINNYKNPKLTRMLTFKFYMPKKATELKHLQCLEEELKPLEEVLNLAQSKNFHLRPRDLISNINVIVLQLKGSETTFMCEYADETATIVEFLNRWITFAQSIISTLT
B37: IgG fusion IL-2 mutein E68W (other)
chain: not shown
B38: IgG fusion IL-2 mutein H16K (other)
chain: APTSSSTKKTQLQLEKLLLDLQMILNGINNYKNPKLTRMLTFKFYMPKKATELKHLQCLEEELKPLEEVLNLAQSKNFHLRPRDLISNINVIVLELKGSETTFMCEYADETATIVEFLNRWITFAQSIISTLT
B39: IgG fusion IL-2 mutein H16Y (other)
chain: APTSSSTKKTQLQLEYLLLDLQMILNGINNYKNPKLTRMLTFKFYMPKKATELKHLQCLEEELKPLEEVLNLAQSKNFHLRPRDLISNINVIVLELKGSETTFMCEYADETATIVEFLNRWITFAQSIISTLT
B40: IgG fusion IL-2 mutein L12Y (other)
chain: not shown
B41: IgG fusion IL-2 mutein P34W (other)
chain: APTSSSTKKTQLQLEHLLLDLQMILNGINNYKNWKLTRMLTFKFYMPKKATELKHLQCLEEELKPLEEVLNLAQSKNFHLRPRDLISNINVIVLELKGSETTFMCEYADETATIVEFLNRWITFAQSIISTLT
B42: IgG fusion IL-2 mutein E68Q (other)
chain: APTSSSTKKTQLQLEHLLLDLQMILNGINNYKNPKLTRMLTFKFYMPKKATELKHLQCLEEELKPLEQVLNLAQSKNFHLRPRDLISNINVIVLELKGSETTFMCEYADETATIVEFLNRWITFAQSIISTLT
B43: IgG fusion IL-2 mutein E61W (other)
chain: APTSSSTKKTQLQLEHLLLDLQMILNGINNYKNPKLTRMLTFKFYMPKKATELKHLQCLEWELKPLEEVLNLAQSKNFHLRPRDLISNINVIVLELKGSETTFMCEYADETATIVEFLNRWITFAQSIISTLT
B44: IgG fusion IL-2 mutein I92V (other)
chain: not shown
B45: IgG fusion IL-2 mutein N71W (other)
chain: not shown
B46: IgG fusion IL-2 mutein D84S (other)
chain: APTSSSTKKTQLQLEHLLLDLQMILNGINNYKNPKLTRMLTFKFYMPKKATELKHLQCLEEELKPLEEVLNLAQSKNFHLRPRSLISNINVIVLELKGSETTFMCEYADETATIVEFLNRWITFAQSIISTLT
B47: IgG fusion IL-2 mutein E95S (other)
chain: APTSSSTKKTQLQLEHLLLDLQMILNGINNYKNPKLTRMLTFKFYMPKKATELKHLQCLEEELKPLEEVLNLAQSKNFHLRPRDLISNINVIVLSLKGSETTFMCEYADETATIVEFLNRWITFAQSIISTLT
B48: IgG fusion IL-2 mutein E15D (other)
chain: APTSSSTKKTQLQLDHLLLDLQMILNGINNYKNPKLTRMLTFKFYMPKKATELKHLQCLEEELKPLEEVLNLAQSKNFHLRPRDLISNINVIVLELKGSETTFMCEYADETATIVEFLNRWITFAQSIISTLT
B49: IgG fusion IL-2 mutein D109K (other)
chain: not shown

The test concerns the target T1, human IL-2Rα (CD25), recombinant, …. The experiment in a line: BLI. On the technique in general: BLI is a label-free optical method that tracks binding on a fibre tip over time.
B1: the Kd was found to be 40.7 nM, the koff was determined as 0.0104 s⁻¹ and the kon was 255000 M⁻¹ s⁻¹.
Consider B2, for which the Kd turned out to be 5.16 nM, the koff was found to be 0.00127 s⁻¹ and the kon is 246000 M⁻¹ s⁻¹.
On to B3, for which the Kd is 16.4 nM, the koff was found to be 0.0137 s⁻¹ and the kon amounted to 833000 M⁻¹ s⁻¹.
Take B4: the Kd was 98.3 nM, the koff is 0.00188 s⁻¹ and the kon is 19100 M⁻¹ s⁻¹.
In the case of B5, the dissociation constant (Kd) worked out at 29.6 nM, the koff was 0.0172 s⁻¹ and the kon came to 580000 M⁻¹ s⁻¹.
For B6, the Kd was 52.6 nM, the koff turned out to be 0.0229 s⁻¹ and the kon was 434000 M⁻¹ s⁻¹.
For the molecule B7, the Kd was found to be 25.4 nM, the koff came to 0.0217 s⁻¹ and the kon was determined as 855000 M⁻¹ s⁻¹.
As to B8, the Kd was 16.3 nM, the koff is 0.0132 s⁻¹ and the kon was determined as 805000 M⁻¹ s⁻¹.
On to B9, for which the Kd worked out at 921 nM, the koff stood at 0.0652 s⁻¹ and the kon stood at 70800 M⁻¹ s⁻¹.
B10: the Kd is 8.96 nM, the koff amounted to 0.00741 s⁻¹ and the kon is 827000 M⁻¹ s⁻¹.
As to B11, the Kd was 51.2 nM, the koff was found to be 0.0326 s⁻¹ and the kon worked out at 636000 M⁻¹ s⁻¹.
As for B12, the Kd was 30.4 nM, the koff amounted to 0.00277 s⁻¹ and the kon is 91100 M⁻¹ s⁻¹.
Take B13: the Kd is 35.9 nM, the off-rate (koff) was 0.0168 s⁻¹ and the kon came out at 467000 M⁻¹ s⁻¹.
Taken in the same sequence, the figures for B14 were 19.6 nM, 0.0154 s⁻¹ and 786000 M⁻¹ s⁻¹.
For the molecule B15, the Kd came to 39.9 nM, the koff worked out at 0.0185 s⁻¹ and the kon is 464000 M⁻¹ s⁻¹.
Regarding B16, the dissociation constant (Kd) was 40.1 nM, the koff was 0.0193 s⁻¹ and the kon was 481000 M⁻¹ s⁻¹.
Consider B17, for which the equilibrium dissociation constant (Kd) was found to be 24 nM, the koff amounted to 0.0158 s⁻¹ and the kon is 661000 M⁻¹ s⁻¹.
On to B18, for which the Kd turned out to be 21.4 nM, the koff was 0.0156 s⁻¹ and the kon was 730000 M⁻¹ s⁻¹.
With B19, the Kd turned out to be 12.5 nM, the koff worked out at 0.0102 s⁻¹ and the kon is 814000 M⁻¹ s⁻¹.
As for B20, the Kd was 118 nM, the koff turned out to be 0.00278 s⁻¹ and the kon was 23700 M⁻¹ s⁻¹.
Consider B21, for which the Kd stood at 25.4 nM, the koff amounted to 0.0211 s⁻¹ and the kon stood at 829000 M⁻¹ s⁻¹.
With B22, the Kd was 453 nM, the koff worked out at 0.00143 s⁻¹ and the kon is 3150 M⁻¹ s⁻¹.
Taken in the same sequence, the figures for B23 were 15.8 nM, 0.0106 s⁻¹ and 671000 M⁻¹ s⁻¹.
Take B24: the Kd turned out to be 16.4 nM, the koff worked out at 0.000747 s⁻¹ and the kon was 45600 M⁻¹ s⁻¹.
Take B25: the Kd turned out to be 13.1 nM, the koff came to 0.00211 s⁻¹ and the kon came to 161000 M⁻¹ s⁻¹.
Taken in the same sequence, the figures for B26 were 0.0762 nM, 3.2e-07 s⁻¹ and 4190 M⁻¹ s⁻¹.
Turning to B27, the Kd stood at 24.7 nM, the koff was 0.0148 s⁻¹ and the kon turned out to be 597000 M⁻¹ s⁻¹.
As to B28, the Kd was 0.0073 nM, the koff was found to be 4.88e-07 s⁻¹ and the kon is 66900 M⁻¹ s⁻¹.
Turning to B29, the dissociation constant (Kd) stood at 25.8 nM, the koff was 0.000612 s⁻¹ and the kon was 23800 M⁻¹ s⁻¹.
In the case of B30, the Kd was determined as 139 nM, the koff worked out at 0.00116 s⁻¹ and the kon amounted to 8330 M⁻¹ s⁻¹.
As to B31, the Kd worked out at 36.8 nM, the dissociation rate constant (koff) came out at 0.0208 s⁻¹ and the kon is 565000 M⁻¹ s⁻¹.
With B32, the Kd worked out at 22.8 nM, the koff turned out to be 0.0186 s⁻¹ and the kon came out at 818000 M⁻¹ s⁻¹.
For the molecule B33, the Kd is 63 nM, the koff is 0.00842 s⁻¹ and the kon was 134000 M⁻¹ s⁻¹.
In the case of B34, the Kd amounted to 771 nM, the koff worked out at 0.00701 s⁻¹ and the kon stood at 9090 M⁻¹ s⁻¹.
For the molecule B35, the Kd came out at 43.2 nM, the koff amounted to 0.0191 s⁻¹ and the kon was determined as 443000 M⁻¹ s⁻¹.
In the case of B36, the Kd amounted to 13.4 nM, the koff came to 0.0131 s⁻¹ and the kon stood at 976000 M⁻¹ s⁻¹.
Taken in the same sequence, the figures for B37 were 30.3 nM, 0.0097 s⁻¹ and 320000 M⁻¹ s⁻¹.
For the molecule B38, the Kd was determined as 32.8 nM, the koff worked out at 0.000428 s⁻¹ and the kon is 13100 M⁻¹ s⁻¹.
Consider B39, for which the Kd was found to be 55 nM, the koff stood at 0.0269 s⁻¹ and the kon worked out at 489000 M⁻¹ s⁻¹.
Turning to B40, the Kd is 21.3 nM, the koff was 0.0224 s⁻¹ and the kon amounted to 1.05e+06 M⁻¹ s⁻¹.
On to B41, for which the Kd worked out at 73.8 nM, the koff stood at 0.028 s⁻¹ and the kon came out at 380000 M⁻¹ s⁻¹.
Taken in the same sequence, the figures for B42 were 25.8 nM, 0.00773 s⁻¹ and 300000 M⁻¹ s⁻¹.
On to B43, for which the Kd was 4350 nM, the koff was found to be 0.0112 s⁻¹ and the kon was 2570 M⁻¹ s⁻¹.
Turning to B44, the Kd was less than 0.001 nM, the koff is less than 1e-07 s⁻¹ and the kon is 48300 M⁻¹ s⁻¹.
Taken in the same sequence, the figures for B45 were 71.9 nM, 0.0108 s⁻¹ and 150000 M⁻¹ s⁻¹.
In the case of B46, the Kd stood at 11.6 nM, the koff amounted to 0.0131 s⁻¹ and the kon amounted to 1.13e+06 M⁻¹ s⁻¹.
Take B47: the Kd came out at 12.5 nM, the koff is 0.012 s⁻¹ and the kon was 959000 M⁻¹ s⁻¹.
Regarding B48, the Kd worked out at 148 nM, the koff was 0.0012 s⁻¹ and the kon was 8120 M⁻¹ s⁻¹.
With B49, the Kd is 136 nM, the koff was 0.0423 s⁻¹ and the kon was 311000 M⁻¹ s⁻¹.
